Assay results as given in PubChem BioAssay AID504332 (National Center for Advancing Translational Sciences (NCATS), 2011).
In all, about 350,000 compounds went through this assay and about 31,000 (8.9%) were called active. The shares of active, inactive and inconclusive entries below differ from those in the screen. The call rests on the fitted dose curve; in most records, active means well fitted inhibition curve with a large enough effect; inconclusive means small, poorly fitted or top-dose-only effect; inactive means no such curve, though single readings can be large or run the other way. A potency beside an inconclusive call is a rough fit, not a confirmed value.

target: Histone-lysine N-methyltransferase EHMT2 (Homo sapiens) (UniProt Q96KQ7); experiment: qHTS Assay for Inhibitors of Histone Lysine Methyltransferase G9a; settings: G9a H3K9 monomethylation, AlphaScreen, 2 h; activity, negative = inhibition: at 59 µM (top of the series) unless noted; further: nearly all actives have a fitted effect of over 75% in size
Procedure, shortened: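 Quantitative HTS format: methyltransferase activity on a biotin-tagged H3K9 peptide is measured by AlphaScreen, using a rabbit anti-monomethyl-H3K9 antibody with streptavidin donor and anti-IgG acceptor beads. Final levels are 20 nM enzyme, 500 nM peptide, 20 uM SAM; 2 h RT.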
On the % scale 0 is the no-effect control and ±100 the full control effect; potency means the concentration at half of the fitted maximal effect; tags describe the fitted curve by direction and shape.

Chain of UniProt Q96KQ7 (Q96KQ7 whole entry, looked up): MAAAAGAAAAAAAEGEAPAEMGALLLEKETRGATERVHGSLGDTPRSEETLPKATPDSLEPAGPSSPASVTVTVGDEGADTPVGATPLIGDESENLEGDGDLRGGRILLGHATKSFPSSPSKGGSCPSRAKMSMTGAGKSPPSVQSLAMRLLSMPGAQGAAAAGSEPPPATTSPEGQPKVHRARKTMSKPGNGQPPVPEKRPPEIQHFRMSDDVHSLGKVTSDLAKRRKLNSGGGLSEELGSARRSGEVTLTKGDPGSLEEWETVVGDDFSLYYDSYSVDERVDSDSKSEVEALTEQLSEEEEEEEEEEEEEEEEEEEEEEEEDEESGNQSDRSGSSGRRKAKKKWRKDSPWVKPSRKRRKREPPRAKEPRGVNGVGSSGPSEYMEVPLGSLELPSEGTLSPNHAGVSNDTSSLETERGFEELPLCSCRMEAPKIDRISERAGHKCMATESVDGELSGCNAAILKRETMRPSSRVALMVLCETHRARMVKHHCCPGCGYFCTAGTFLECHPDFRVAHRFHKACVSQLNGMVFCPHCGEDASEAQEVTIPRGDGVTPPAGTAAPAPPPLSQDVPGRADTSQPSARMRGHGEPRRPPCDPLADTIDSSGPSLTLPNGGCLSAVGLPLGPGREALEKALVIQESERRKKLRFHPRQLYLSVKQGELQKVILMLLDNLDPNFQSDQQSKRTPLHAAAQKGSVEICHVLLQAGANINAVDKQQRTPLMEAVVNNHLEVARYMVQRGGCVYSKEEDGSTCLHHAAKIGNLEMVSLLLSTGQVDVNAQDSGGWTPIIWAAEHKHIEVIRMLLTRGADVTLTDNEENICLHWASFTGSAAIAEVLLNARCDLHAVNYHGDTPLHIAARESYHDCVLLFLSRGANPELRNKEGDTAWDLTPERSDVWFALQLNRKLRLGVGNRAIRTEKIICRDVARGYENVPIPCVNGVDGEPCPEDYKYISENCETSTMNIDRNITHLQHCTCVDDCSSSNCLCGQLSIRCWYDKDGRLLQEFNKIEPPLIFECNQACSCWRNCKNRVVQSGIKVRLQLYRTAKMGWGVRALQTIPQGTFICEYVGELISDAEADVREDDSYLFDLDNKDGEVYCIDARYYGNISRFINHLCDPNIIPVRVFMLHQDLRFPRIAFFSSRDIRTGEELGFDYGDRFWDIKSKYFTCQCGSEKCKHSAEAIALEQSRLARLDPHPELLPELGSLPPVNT

Compound | Potency | activity, negative = inhibition
Cc1ccc(C)c(-c2nn(CC(=O)Nc3cc(F)ccc3F)c(=O)c3c2CCCC3)c1 | inconclusive: 22.4 µM [inhibitor, partial curve, poor fit] | –
Cc1ccc2onc(CC(=O)Nc3cc(F)ccc3F)c2c1 | inconclusive: 31.6 µM [inhibitor, single point] | –
Cc1sc(NC(=O)c2ccc(=O)n(C)n2)nc1-c1ccccc1 | – | inconclusive: -53.3% [inhibitor] [at 12.7 µM]
COC(=O)c1c(SC)nc2ccccc2c1OCc1ccc(C)cc1C | inactive | –
COCCn1c(SCC(=O)N(C(C)C)C(C)C)nnc1-c1cc2ccccc2cc1O | inconclusive: 2.24 µM [inhibitor, full curve] | –
COc1ccc(CN2C(=O)NC3(CCOc4ccccc43)C2=O)cc1F (stereo unspecified) | inconclusive: 39.8 µM [inhibitor, single point] | –
CCC(C)NC(C(=O)Nc1ccc(Cl)c([N+](=O)[O-])c1)c1ccccc1 (stereo unspecified) | inconclusive: 31.6 µM [inhibitor, single point] | –
C/C(=N\NS(=O)(=O)c1c(C)cc(C)cc1C)c1ccncc1 | active: 8.91 µM | –
Cn1nccc1C(=O)N1CCCC(Nc2ccc(F)cc2)C1 (stereo unspecified) | inactive | –
CC(=O)OCc1c(C(F)(F)F)nn(C)c1Sc1ccccc1 | inactive | –
CCc1ccccc1N(C)C(=O)Nc1cn(CC(C)C)c(=O)c2ccccc12 | inactive | –
COc1cc(C(=O)Nc2ccc(N(C)C)cc2)c([N+](=O)[O-])cc1OC | inconclusive: 8.91 µM [inhibitor, full curve] | –
CCn1c(SCC(=O)Nc2sc3c(c2C#N)CCCC3)nnc1-c1ccco1 | inconclusive: 2.82 µM [inhibitor, partial curve, poor fit] | –
Cc1cccc2sc(NNC(=O)C3COc4ccccc4O3)nc12 (stereo unspecified) | active: 17.8 µM | –
COc1cc(C(=O)OCC(=O)Nc2ccc(N3CCOCC3)cc2)ccc1OCC(C)C | active: 6.31 µM | –
O=C(NS(=O)(=O)c1ccc(NC(=O)C2CCCO2)cc1)c1ccccc1 (stereo unspecified) | inconclusive: 39.8 µM [inhibitor, single point] | –
O=C1c2cc(F)ccc2OC2(CCNCC2)C12CC(c1ccccc1)=NO2 (stereo unspecified) | inconclusive: 11.2 µM [inhibitor, partial curve, poor fit] | –
COc1ccc(-c2nc3ccccc3c(=O)n2CC(C)C)cc1 | inconclusive: 1.41 µM [inhibitor, single point] | –
N#Cc1ccc(NC(=O)COCc2cc(-c3ccc4c(c3)OCO4)on2)cc1 | inactive | –
COC(=O)c1scc(-c2ccc(C)cc2)c1S(=O)(=O)Nc1ccc(OC(F)(F)F)cc1 | inactive | –
CCCCCNC(=O)c1ccc2c(=O)[nH]c3c(C(=O)NCC4CCCO4)sc(=S)n3c2c1 (stereo unspecified) | inconclusive: 15.8 µM [inhibitor, partial curve, poor fit] | –
Cc1cccc(NC(=O)c2cc([N+](=O)[O-])ccc2N2CCCCC2)n1 | inconclusive: 44.7 µM [inhibitor, partial curve, poor fit] | –
O=C(CSc1nc(=O)n(Cc2ccco2)c2c1CCC2)NCc1ccccc1Cl | inactive | –
COCCNC(=O)C(C)Oc1ccccc1 (stereo unspecified) | inconclusive: 89.1 µM [inhibitor, partial curve, poor fit] | –

Compound | Potency | activity, negative = inhibition
COc1ccc(N2CC(C(=O)Nc3cc(C(F)(F)F)ccc3N3CCCC3)CC2=O)c(OC)c1 (stereo unspecified) | inconclusive: 79.4 µM [inhibitor, single point] | –
COc1ccc(N2CCN(S(=O)(=O)c3ccc(OC)c(C(=O)N4CCOCC4)c3)CC2)cc1 | active: 44.7 µM | –
O=C(NC(=S)Nc1ccccc1N1CCCC1)c1ccc(F)cc1 | active: 31.6 µM | –
Cc1cc(NC(=O)c2oc3c(c2C)-c2[nH]ncc2CC3)ccc1Br | inconclusive: 20 µM [inhibitor, partial curve, poor fit] | –
Cc1cc(=O)c2cc3nc(-c4cccnc4)oc3c(Br)c2o1 | active: 39.8 µM | –
O=C(CC1NCCNC1=O)Nc1ccc(F)c(Cl)c1 (stereo unspecified) | inactive | –
Oc1c(C(c2ccccc2)N2CCN(Cc3ccccc3)CC2)sc2ncnn12 (stereo unspecified) | inconclusive: 89.1 µM [inhibitor, single point] | –
C/C(Cl)=C/Cn1c(SC(C)C)nc2c1c(=O)[nH]c(=O)n2C | inconclusive: 5.62 µM [inhibitor, partial curve, poor fit] | –
Cc1nn(-c2ccccc2)c(C)c1/C=N/NC(=O)c1ccccc1NS(=O)(=O)c1cccs1 | inconclusive: 7.08 µM [inhibitor, single point] | –
O=C(C1=C(O)C(=O)N(c2ccccc2)C1c1ccc([N+](=O)[O-])cc1)c1cccs1 (stereo unspecified) | inconclusive: 28.2 µM [inhibitor, partial curve, poor fit] | –
O=C(CNC(=O)c1cccs1)NCCN1CCN(c2ccccc2F)CC1 | inconclusive: 1.78 µM [inhibitor, full curve, poor fit] | –
CNC(=O)c1cc2cccc(OC)c2oc1=O | inactive | –
CSc1ccc(NC(=O)/C=C/C(=O)O)cc1 | inconclusive: 70.8 µM [inhibitor, partial curve, poor fit] | –
O=C(NCCCc1nc2ccccc2[nH]1)c1cccs1 | inconclusive: 89.1 µM [inhibitor, single point] | –
Cc1ccc(C)c(NC(=O)CCN2CCC(C)CC2)c1 | inactive | –
COc1ccc(C(OCC(O)CN2CCC(O)CC2)c2ccc(OC)cc2)cc1 (stereo unspecified) | inactive | –
Cc1cc(CNC(=O)c2cccnc2Cl)c2ccccc2n1 | inconclusive: 0.501 µM [inhibitor, full curve, poor fit] | –
CCC(C(=O)Nc1cc(-c2cn3cccnc3n2)ccc1C)c1ccccc1 (stereo unspecified) | inactive | –
CC(C)C(CC(=O)NCc1ccco1)c1ccco1 (stereo unspecified) | active: 39.8 µM | –
COc1ccccc1C1c2[nH]c3ccccc3c2CCN1Cc1ccc(NC(C)=O)s1 (stereo unspecified) | inconclusive: 56.2 µM [inhibitor, partial curve, poor fit] | –
CCCCOc1ccc(C(=O)Nc2sc3c(c2C(=O)OCC)CCCCC3)cc1 | inactive | –
CN(C(=O)c1ccco1)c1nc(CC(=O)Nc2ccccc2)cs1 | inconclusive: 15.8 µM [inhibitor, partial curve] | –
CC(C)c1ccc(-c2cc(C(=O)NN3CCN(C)CC3)c3ccccc3n2)cc1 | active: 50.1 µM | –
Cc1cc(C)n(Cc2ccc(C(=O)NCc3ccco3)o2)n1 | inconclusive: 79.4 µM [inhibitor, single point] | –

Compound | Potency | activity, negative = inhibition
CC(C)NCC(O)COC1C2CC3CC(C2)CC1C3 (stereo unspecified) | inactive | –
Cc1ccc(NC(=O)CN2CCCCCC2)cc1Br | active: 22.4 µM | –
COc1ccc(/C=N\NC(=O)c2ccc([N+](=O)[O-])c(C)c2)cc1COc1ccccc1C(N)=O | inconclusive: 70.8 µM [inhibitor, single point] | –
O=C(CCN1C(=O)/C(=C\c2ccccc2Cl)SC1=S)N1CCN(c2ccccc2)CC1 | inconclusive: 3.55 µM [inhibitor, full curve] | –
COc1ccc(Cl)cc1C(=O)OCC(=O)N(CC(C)C)c1c(N)n(Cc2ccccc2)c(=O)[nH]c1=O | inconclusive: 56.2 µM [inhibitor, partial curve] | –
CSc1ccc(C2C(C#N)=C(N)N(c3ccccc3)C3=C2C(=O)CCC3)cc1 (stereo unspecified) | inconclusive: 0.631 µM [inhibitor, single point] | –
COc1cc(C(=O)Nc2oc(-c3ccccc3)c(-c3ccccc3)c2C#N)cc(OC)c1OC | inactive | –
CCOc1ccccc1CN1CCNC(=O)C1CC(=O)NC1CCCCC1 (stereo unspecified) | – | inactive: -4.94% [at 0.0925 µM]
Cc1ccc(N2C(=O)C(Cl)=C(N3CCCCCC3)C2=O)c(C)c1 | inactive | –
COc1cccc(CN2CCC(C(=O)N3CCN(c4ccccc4F)CC3)CC2)c1OC | active: 10 µM | –
CCc1nnc(NC(=O)CSc2nnc(-c3ccccc3OC)n2-c2ccc(C)cc2)s1 | inconclusive: 39.8 µM [inhibitor, single point] | –
Cn1cccc1Cc1nnc(SCC(=O)NC2CCCC2)n1CCc1ccccc1 | active: 79.4 µM | –
COc1cccc(-c2cc(C(=O)NCC3CCCO3)c3ccccc3n2)c1 (stereo unspecified) | inconclusive: 22.4 µM [inhibitor, single point] | –
COc1cc2c(cc1OC)CN(CCC(=O)c1ccc(Br)cc1)CC2 | active: 14.1 µM | –
O=C(CN(CCc1ccccc1)C(=O)Cn1nnc(-c2cccs2)n1)NCc1ccco1 | inconclusive: 89.1 µM [inhibitor, single point] | –
Cc1ccccc1N/N=C/c1ccc(C#N)cc1 | active: 10 µM | –
COCCCNC(=O)CSc1nc2cc(S(=O)(=O)N3CCCCC3)ccc2o1 | inconclusive: 44.7 µM [inhibitor, partial curve, poor fit] | –
CC1(c2ccccc2)NC(=O)N(CC(=O)Nc2ccccc2N2CCCC2)C1=O (stereo unspecified) | inconclusive: 70.8 µM [inhibitor, single point] | –
Cc1ccc(NC(=O)C2CCN(S(=O)(=O)c3ccc4c(c3)CCCC(=O)N4)CC2)c(Br)c1 | inactive | –
COC(=O)c1ccccc1NS(=O)(=O)c1ccc(Cl)nc1 | inactive | –
CCCCC(=O)N/N=C/c1ccc(Sc2cccc3cccnc23)o1 | inconclusive: 1.78 µM [inhibitor, partial curve, poor fit] | –
Cc1cccc(NC(=O)CSc2nc3c(c(=O)[nH]2)CCCC3)c1C | inconclusive: 89.1 µM [inhibitor, single point] | –
COC(=O)c1ccc(NC(=O)c2ccc3c(c2)C(=O)N(C)C3=O)cc1 | inconclusive: 89.1 µM [inhibitor, single point] | –
